Test results taken from article PMC6212790.
Some of the results follow. At the low end of the ranking the order means little.

These sequences were tested against T1, GST-Rok (full length) (UniProt O34857) (assay: protein binding microarray). Details: Rok is a gene silencer of Bacillus subtilis; high values mean tight binding; most listed sequences are background and not binding sites; double strand, one strand shown.
T1 sequence: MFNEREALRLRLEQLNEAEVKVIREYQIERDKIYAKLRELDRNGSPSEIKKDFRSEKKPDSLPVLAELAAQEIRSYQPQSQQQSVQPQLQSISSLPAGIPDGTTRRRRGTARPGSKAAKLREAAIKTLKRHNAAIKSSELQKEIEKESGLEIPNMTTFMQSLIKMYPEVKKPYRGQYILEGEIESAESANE
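Also: rank score from −0.5 (least bound) to 0.5 (best bound).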

Row | Sequence | binding signal [E-score]
1 | AAACAAGC | -0.041
2 | AGAGACCC | -0.232
3 | ATGGACAT | 0.0858
4 | ATTCAATA | 0.101
5 | TCTGATAA | 0.0869
6 | AAGTGTCA | -0.152
7 | AAATGAAC | 0.0908
8 | CCCACAGC | -0.178
9 | ACAAAAGT | 0.146
10 | ATTGAAGA | 0.204
11 | GTCAGGTA | 0.0364
12 | CGATCATC | -0.235
13 | ATTCCTCG | -0.00192
14 | AGATGTGC | 0.115
15 | GCATTTAC | 0.207
16 | AGTCACAC | -0.0889
17 | ACATAAGC | 0.141
18 | AACCTGCA | -0.231
19 | CTACTCGC | 0.118
20 | CGCTATAG | 0.0935
21 | ATTATCAA | 0.308
22 | AAGTATCG | 0.113
23 | AGTCCTAG | 0.0621
24 | CCCGGGAA | -0.199
25 | ATCCGCTG | 0.012

Row | Sequence | binding signal [E-score]
26 | AGTGTCAA | 0.00921
27 | CGTCATAG | 0.0138
28 | AGTACTGA | 0.172
29 | AATCCACT | -0.0752
30 | CCTGAGTC | -0.0724
31 | ATCGGATA | 0.127
32 | AAGTCCGC | -0.0838
33 | GGGAGGAC | -0.296
34 | ACGCAGGG | -0.3
35 | GAACGCAC | -0.177
36 | AGCCCTGC | -0.296
37 | GACCCGCA | -0.218
38 | GTCCAGCA | -0.0786
39 | CACTTCGG | -0.244
40 | ACGCTCGG | -0.265
41 | CCCTCCTC | -0.393
42 | CGCTCATC | -0.282
43 | CAGAAGCA | -0.0439
44 | ATAAGACC | 0.135
45 | AGCCCAAT | -0.0279
46 | TCCAAGCA | -0.0779
47 | TACCTACA | 0.322
48 | AACAGGAG | -0.0782
49 | GTAGAAAC | 0.427
50 | CGATCCCA | -0.16

Row | Sequence | binding signal [E-score]
51 | ATGCAAAG | -0.0588
52 | CCTTTCAG | -0.224
53 | CGGCATTA | 0.172
54 | GGGGTTCA | -0.329
55 | ACCGAGTG | 0.0735
56 | CGCCTGGC | -0.352
57 | TCAACCAA | -0.0239
58 | CGTAATAC | 0.301
59 | ACAATTGT | 0.222
60 | GTCCGAAC | -0.0652
61 | GCTTTTCA | 0.0121
62 | CACAATCC | 0.0049
63 | ACAGACGG | 0.0371
64 | AACGCGCA | -0.0365
65 | ACGGCCGG | -0.0785
66 | ACCCTAGA | 0.0093
67 | CAGCAAAG | -0.212
68 | CGACGGTC | -0.0734
69 | AAAATCCT | 0.14
70 | AACAGTCG | 0.0313
71 | AGGGGAAA | -0.19
72 | GCAGGGTA | -0.146
73 | ACTAGGAT | 0.158
74 | GACGAGCA | -0.105
75 | AGCAGCGC | -0.134

Row | Sequence | binding signal [E-score]
76 | TACGACGA | 0.189
77 | ACAATGGG | -0.0476
78 | GTGCCCAA | -0.184
79 | TAAATGCA | 0.255
80 | CCTCCGGA | -0.227
81 | CTGGACGC | -0.0676
82 | CTGGATGC | -0.368
83 | ATTTACTC | 0.0747
84 | AGCTCCCT | -0.149
85 | GGCTGCAC | -0.234
86 | CTTCCCTA | 0.0486
87 | GAGTGGCC | -0.302
88 | TCGCATCA | -0.179
89 | AAGAGTAA | 0.146
90 | CCAAAGGC | -0.287
91 | CAATCTTA | 0.154
92 | CCAAGATA | 0.241
93 | CTCAAAAA | -0.108
94 | GCCTAAGC | -0.277
95 | ACGGACGG | -0.243
96 | CCCGGAAG | -0.354
97 | AACTGGCA | -0.0633
98 | CGTTCCGA | -0.139
99 | AAGGCGGC | -0.303
100 | GGACGAGA | -0.317

Row | Sequence | binding signal [E-score]
101 | ATAACCCC | -0.236
102 | AGCCCAGA | -0.183
103 | TACCCGAA | 0.0596
104 | GAGAGAAC | -0.00565
105 | TCAAAACA | 0.00942
106 | ATTTCATC | 0.136
107 | AGGAGTCA | -0.206
108 | AGGGGATA | -0.156
109 | GCGACCCC | -0.377
110 | TGATATCA | 0.275
111 | CCTAGCAC | -0.1
112 | CATCCGAA | -0.16
113 | GGTCTCTA | 0.0202
114 | ACAAAAGC | 0.121
115 | GTACATAA | 0.303
116 | CTTAAACC | -0.109
117 | CGGCTTCA | -0.26
118 | ATCGCTTA | 0.0672
119 | GGGGCGCA | -0.366
120 | GAATGGCC | -0.15
121 | CCACGGAA | 0.0441
122 | CCTTCCGC | -0.245
123 | ACGCAAGT | -0.122
124 | CACTTGCC | -0.13
125 | CACTCCCA | -0.224

Row | Sequence | binding signal [E-score]
126 | CGTAGTGC | 0.0664
127 | CAGCAGCA | -0.0504
128 | AAAATCAA | -0.00492
129 | ATCAGCCA | -0.0584
130 | AACATACT | 0.136
131 | ACCGCAAG | -0.157
132 | GTATCGAA | 0.0625
133 | CATATGTA | 0.338
134 | GCATTTTA | 0.191
135 | AGGCGCTA | -0.15
136 | ACATGTAT | 0.167
137 | TAACGCCA | -0.189
138 | GGTCCTTA | -0.176
139 | GGTAAAAA | 0.349
140 | CCTTGAAG | -0.235
141 | ACACAGAG | -0.0986
142 | AGGTTGCG | 0.0775
143 | CCGGGATC | -0.283
144 | GCCGCCGC | -0.281
145 | CGCTGGTC | -0.221
146 | ATCTGCAC | -0.176
147 | GGCCCCCA | -0.471
148 | CATTACCA | 0.14
149 | CCGGATGC | -0.184
150 | CCGAAATC | -0.098

Row | Sequence | binding signal [E-score]
151 | TCAGCGCA | -0.0441
152 | ACTGTTTG | 0.106
153 | CGCCTCGA | -0.18
154 | AGGATTTC | -0.0619
155 | GTGGAAAA | -0.0589
156 | TATCTTCA | 0.162
157 | ACCTTGGA | -0.145
158 | ACGGCGTA | 0.0265
159 | CATCAAAG | 0.0902
160 | ATTCCCCA | -0.171
161 | ACGCTCTA | 0.147
162 | CTATACTC | 0.137
163 | AGGATCTC | -0.0828
164 | ATCTGGAG | -0.112
165 | CAGCCCGC | -0.285
166 | AAATCGAG | -0.063
167 | ACGGCGTC | -0.237
168 | GGCACATA | -0.0396
169 | ACACTTGG | 0.0922
170 | CCGAAAAA | -0.117
171 | GGGGCGAC | -0.279
172 | AGTCACTA | 0.0846
